Data taken from PubChem BioAssay AID2676 (National Center for Advancing Translational Sciences (NCATS), 2010).
About 1,100 (0.3%) of roughly 370,000 compounds were called active. The shares of active, inactive and inconclusive entries below differ from those in the screen. Calls come from the whole dose curve; as a rule, active = well fitted activation curve with a large enough effect; inconclusive = small, poorly fitted or top-dose-only effect; inactive = flat fitted curve, though single readings scatter. Potencies of inconclusive entries are doubtful fits and often do not repeat. The source holds several records for some structures; these can differ, active in one and inactive in another.

target: Relaxin receptor 1 (Homo sapiens) (UniProt Q9HBX9); assay: qHTS Assay for Agonists of the Relaxin Receptor RXFP1; conditions: HEK293T-RXFP1 cAMP TR-FRET, 30 min; series mostly up to 57.5 µM; activation: at the top concentration; note: nearly all actives have a fitted effect of over 60% in size
Sequence of UniProt Q9HBX9 (Q9HBX9 whole entry, looked up): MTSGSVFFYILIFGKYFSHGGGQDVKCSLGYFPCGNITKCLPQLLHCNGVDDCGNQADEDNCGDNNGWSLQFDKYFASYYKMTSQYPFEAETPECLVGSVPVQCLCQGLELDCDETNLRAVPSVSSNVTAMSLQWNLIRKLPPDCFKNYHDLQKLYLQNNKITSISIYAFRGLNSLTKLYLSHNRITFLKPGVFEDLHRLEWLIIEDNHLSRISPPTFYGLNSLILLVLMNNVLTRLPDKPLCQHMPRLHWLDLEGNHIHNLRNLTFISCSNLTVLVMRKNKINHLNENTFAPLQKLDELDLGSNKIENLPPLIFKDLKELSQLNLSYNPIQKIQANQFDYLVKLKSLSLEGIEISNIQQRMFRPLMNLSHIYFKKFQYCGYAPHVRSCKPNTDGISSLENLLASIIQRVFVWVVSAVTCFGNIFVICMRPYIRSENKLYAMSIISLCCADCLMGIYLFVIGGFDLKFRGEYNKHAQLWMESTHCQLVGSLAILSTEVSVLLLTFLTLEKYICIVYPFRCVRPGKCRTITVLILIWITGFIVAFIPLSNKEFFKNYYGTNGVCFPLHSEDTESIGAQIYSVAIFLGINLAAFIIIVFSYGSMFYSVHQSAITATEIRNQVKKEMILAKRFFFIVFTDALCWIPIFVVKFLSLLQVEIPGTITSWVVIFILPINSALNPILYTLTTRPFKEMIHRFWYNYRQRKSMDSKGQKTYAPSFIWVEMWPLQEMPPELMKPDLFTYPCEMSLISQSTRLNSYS
Summary of the method: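 Agonist response is measured as cAMP accumulation in an RXFP1-transfected HEK293T line under PDE4 inhibition. Values are scaled between buffer-only and 29 nM porcine relaxin, and EC50s come from standard Hill equation fits.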
% is set by controls: 0 for no effect and ±100 for the full control effect; potency is the fitted concentration of half-maximal effect; tags give direction and shape of the fitted curve.

Potency, inconclusive:
COc1cc2c3nc4n(c(=O)c3n(CC(=O)NCC3CCCO3)c2cc1OC)CCS4 (configuration not stated) 22.4 µM [activator, partial curve]
COc1cc(-c2nc3sccn3c2Nc2cccc(C)c2)ccc1O 35.5 µM [activator, single point]
CCOc1ccc(/C(O)=C2/C(=O)C(=O)N(c3ncccn3)C2c2ccc(C)cc2)cc1 (configuration not stated) 20 µM [activator, partial curve]
Cc1cc(C)n(C(=O)CCCn2cc([N+](=O)[O-])cn2)n1 20 µM [activator, partial curve]
COc1cc(SC)ccc1C(=O)Nc1ncc(Cl)cc1Cl 39.8 µM [activator, single point]
COc1ccc(OC)c(NC(=O)c2cn3c4c(ccc(Cl)c4c2=O)OC(C)C3)c1 (configuration not stated) 35.5 µM [activator, single point]
CCOC(=O)c1sc(NC(=O)CC)c(C#N)c1C 39.8 µM [activator, single point]
COc1ccc(-c2nc(NCCCN(C)C)c3ccccc3n2)cc1 28.2 µM [activator, partial curve]
Cc1ccc2c(c1)cc(C(=O)NCc1ccccc1C)n2C 39.8 µM [activator, single point]
COCc1cc(C)nc(Nc2ccc(C)c(C)c2)c1C#N 39.8 µM [activator, single point]
CCOC(=O)c1c(-c2ccc(C)s2)csc1NC(=O)c1cccs1 35.5 µM [activator, single point]
CCSc1ccc2nnc(-c3cccs3)n2n1 25.1 µM [activator, partial curve]
Cc1cc(C)c(NC(=O)CSc2nc3ncc(Br)cc3[nH]2)c(Cl)c1 39.8 µM [activator, single point]
COc1ccc(NC(=O)Cn2cc(C(=O)c3ccncc3)c(=O)c3cc(C)ccc32)cc1Cl 12.6 µM [activator, partial curve]
CC1(C)CC(=O)C2=C(C1)NC1=C(C(=O)c3ccccc31)C2c1cc([N+](=O)[O-])ccc1O (configuration not stated) 25.1 µM [activator, partial curve]
Cc1ccc2c(=O)c(C(=O)c3ccccc3)cn(CC(=O)Nc3ccc(C)c(Cl)c3)c2n1 35.5 µM [activator, single point]
Cc1ccc2c(c1)N(C(=O)N1CCC(C(=O)NCCc3ccccc3)CC1)CC(C)O2 (configuration not stated) 25.1 µM [activator, single point]
COc1ccc(-c2ccc3c(N)c(C(=O)NCc4ccc(C)cc4)sc3n2)cc1 25.1 µM [activator, single point]
Cc1ccc(NC(=O)Cn2cnc3c2c(=O)n(C)c(=O)n3C)cc1C 14.1 µM [activator, partial curve]
Cc1ccc(NC2=NC(c3ccc(F)cc3)n3c(nc(C)cc3=O)N2)c(C)c1 (configuration not stated) 5.01 µM [activator, single point]
COc1ccc(-n2c(=O)c3ccc(C(=O)NCc4ccc(C)cc4)cc3n(Cc3cccc(Cl)c3)c2=O)cc1 35.5 µM [activator, single point]
COc1ccc(C(=O)COC(=O)CCN=C2NS(=O)(=O)c3ccccc32)c(OC)c1 39.8 µM [activator, single point]
CCc1ccc2c(c1)cc(CN(C(=S)Nc1ccccc1C)C1CC1)c1nnnn12 39.8 µM [activator, single point]
Cc1ccc(NC(=O)c2cc3c(-c4ccccc4)nn(-c4ccccc4)c3s2)cc1 31.6 µM [activator, single point]
Cc1nc2ccccc2c(=O)n1/N=C/c1ccc([N+](=O)[O-])o1 20 µM [activator, partial curve]
O=C(CSc1nc(-c2ccccc2)c2ccccc2n1)Nc1ccc(F)cc1 31.6 µM [activator, single point]
COCCCN1C(=O)C(O)=C(C(=O)c2ccc(C)o2)C1c1cccc(Br)c1 (configuration not stated) 28.2 µM [activator, partial curve]
Cc1cccc(N2CCN(c3ccc4cc(S(=O)(=O)N5CCCCC5)ccc4n3)CC2C)c1 (configuration not stated) 35.5 µM [activator, partial curve]
COc1ccccc1C(=O)OCc1cc(=O)n2nc(C3CCCCC3)sc2n1 39.8 µM [activator, single point]
CC(=O)OCCCN1C(=O)c2cccc3cc(Br)cc(c23)C1=O 28.2 µM [activator, partial curve]
Cc1csc2nc(COC(=O)c3cccc(NC(=O)c4cccc(Cl)c4)c3)cc(=O)n12 35.5 µM [activator, single point]
N#C/C(=C\c1c(N2CCOCC2)nc2ccccn2c1=O)C(=O)NC1CCS(=O)(=O)C1 (configuration not stated) 28.2 µM [activator, partial curve]
O=C(c1cccs1)c1cn(CCOc2ccc(Cl)cc2)c2ccccc12 39.8 µM [activator, single point]
O=C(C1=C(O)C(=O)N(CC2CCCO2)C1c1ccc(Cl)cc1)c1ccco1 (configuration not stated) 20 µM [activator, partial curve]
Cc1nn(CCCC(=O)NCCc2ccccc2)c(=O)c2nccn12 28.2 µM [activator, partial curve]
O=C(Cn1c(=O)n(-c2ccc(F)cc2)c(=O)c2sc3ccccc3c21)NC1CCCC1 35.5 µM [activator, single point]
COc1ccc(CSc2nc3ccncc3n2CC(=O)Nc2cc(C)cc(C)c2)cc1 39.8 µM [activator, single point]
CCOc1cccc(C2/C(=C(/O)c3ccc4c(c3)CC(C)O4)C(=O)C(=O)N2Cc2ccncc2)c1 (configuration not stated) 25.1 µM [activator, partial curve]
Cc1sc2nc(SCC(=O)NCc3ccco3)n(-c3ccccc3)c(=O)c2c1C 35.5 µM [activator, single point]
CCc1nn2c(=O)cc(COC(=O)c3ccc(NC(=O)CCc4ccccc4)cc3)nc2s1 31.6 µM [activator, partial curve]
S=c1nc(COc2ccccc2)[nH]c2ccccc12 22.4 µM [activator, partial curve]
CCOc1ccc(NC(=O)C2CCN(c3nnc(C)c4c(C)n(-c5ccccc5)nc34)CC2)cc1 39.8 µM [activator, single point]
COC(=O)c1ccc(C2C(C(=O)c3ccc(C)o3)=C(O)C(=O)N2c2cc(C)on2)cc1 (configuration not stated) 20 µM [activator, partial curve]
CCc1cc2c(C)ccc(C)c2nc1SCC(=O)Nc1c[nH]c(=O)[nH]c1=O 35.5 µM [activator, single point]
Cc1cccc(NC(=O)CSc2nc(-c3cccs3)cc(C(F)(F)F)c2C#N)c1C 14.1 µM [activator, partial curve]

Potency, active:
CN(Cc1ccco1)S(=O)(=O)c1nnc(NC(=O)c2ccccc2Cl)s1 11.2 µM
N#Cc1c(-c2ccco2)nc(SCc2ccc(F)cc2)[nH]c1=O 25.1 µM
CCN(CC)S(=O)(=O)c1ccc2c(c1)N(CC(=O)Nc1cccnc1Cl)C(=O)CO2 12.6 µM
COc1ccc(-c2nc3nc(C)cc(Nc4cccc(C(F)(F)F)c4)n3n2)cc1 31.6 µM

activation, inactive:
O=C(NC(=S)N1CCCc2ccccc21)c1ccccc1 1.21%
Cc1cccc(CCNC(=O)Cn2ncc3c(=O)oc4ccccc4c32)c1 4.15%
COC1=C(N)C(=O)c2nc(-c3nc(C(=O)O)c(C)c(-c4ccc(OC)c(OC)c4O)c3N)ccc2C1=O -1.1%
Cc1ccc(-n2nnc(-c3cccnc3Cl)n2)cc1 0.155%
Cc1ccc(S(=O)(=O)N2CCOCC2)cc1NC(=O)CSc1ccc(Cl)cc1 0.662%
COc1ccc(CCC(=O)NNC(=O)c2ccccn2)cc1OC 0.175%
CCCn1cc(S(=O)(=O)c2cc(C)ccc2C)c(=O)c2cc(F)c(N3CCN(CC)CC3)cc21 -0.835%
O=C(CSc1ncc(-c2ccccc2)[nH]1)Nc1cccc(Br)c1 -0.223%
Cn1c(SCc2cccnc2)nc2c(c1=O)SCC2 -0.291%
O=C(O)c1ccc(-c2ccccn2)s1 27.1%
O=C(Nc1ccc(Cl)c(Cl)c1)C1=Cc2ccccc2OC1 -0.768%
Cc1cccc(N2CCN(S(=O)(=O)c3ccc4oc(=O)c5ncn(C)c5c4c3)CC2)c1C 3.61%
O=C(NC(=S)Nc1cc([N+](=O)[O-])ccc1Cl)c1ccccc1 -0.0737%
CCCC(=O)C1=C(c2ccc(C)cc2)N(C(=O)CCC)n2cnnc2S1 2.85%
COc1ccc(-n2c(=S)[nH]c3cc(C(=O)Nc4ccccc4OC)ccc3c2=O)cc1 3.24%
O=S(=O)(Nc1cccc(-n2cnnn2)c1)c1ccccc1C(F)(F)F 0.866%
COc1ccc(CNC(=O)Cc2c(C)c3cc4c(C)coc4cc3oc2=O)cc1 3.02%
COc1ccc(NC(=O)CSc2nnc(NC(=O)c3ccco3)s2)cc1OC -2.36%
